# The other results are listed elsewhere or left out.
# B1: AAL (Agrocybe aegerita), Q6WY08 (protein)
# chain: MQGVNIYNISAGTSVDLAAPVTTGDIVTFFSSALNLNAGAGNPNNTTLNLFAENGAYLLHIAHRLQENVIIFNSRQPDGPWLVEQRVSDVANQFAGIDGKAMVTVFDHGDKYQVVINEKTVIQYTKQISGLTLSLSYNATEETSIFSTVVEAVTYTGLALEHHHHHH
# Tests used:
# Experiment in all cases: glycan array binding signal (z-score within array); higher = stronger binding
# Details in all cases: glycan notation: IUPAC condensed, linker removed; mutation: F63H
# Kdn(a2-3)Gal(b1-3)GlcNAc = target: Kdn(a2-3)Gal(b1-3)GlcNAc
# Outline: (§1)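 Glycan array data came from 3228 arrays in the Consortium for Functional Glycomics database, and only arrays with an available protein sequence were kept. Glycan names were put into IUPAC-condensed notation, and columns mapping to the same glycan were averaged. The binding signal is a within-array Z-score, averaged across arrays of one protein sequence run at different concentrations or buffers and across linkers. A negative Z-score can be read as non-binding.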
# Kdn(a2-3)Gal(b1-4)Glc = target: Kdn(a2-3)Gal(b1-4)Glc
# Outline: as §1
# Kdn(a2-3)Gal(b1-4)GlcNAc = target: Kdn(a2-3)Gal(b1-4)GlcNAc
# Outline: as §1
# [1] = target: Kdn(a2-3)Gal(b1-4)[Fuc(a1-3)]GlcNAc
# Outline: as §1
# Kdn(a2-6)Gal(b1-4)GlcNAc = target: Kdn(a2-6)Gal(b1-4)GlcNAc
# Outline: as §1
# [2] = target: Man(a1-2)Man(a1-2)Man(a1-3)Man
# Outline: as §1
# [3] = target: Man(a1-2)Man(a1-2)Man(a1-6)[Man(a1-3)]Man
# Outline: as §1
# Man(a1-2)Man(a1-3)Man = target: Man(a1-2)Man(a1-3)Man
# Outline: as §1
# [4] = target: Man(a1-2)Man(a1-3)[Man(a1-2)Man(a1-6)]Man
# Outline: as §1
# [5] = target: Man(a1-2)Man(a1-3)[Man(a1-2)Man(a1-6)]Man(a1-6)[Man(a1-2)Man(a1-2)Man(a1-3)]Man
# Outline: as §1
# [6] = target: Man(a1-2)Man(a1-3)[Man(a1-2)Man(a1-6)]Man(a1-6)[Man(a1-2)Man(a1-2)Man(a1-3)]Man(b1-4)GlcNAc(b1-4)GlcNAc
# Outline: as §1
# [7] = target: Man(a1-2)Man(a1-3)[Man(a1-6)]Man(a1-6)[Man(a1-2)Man(a1-3)]Man(b1-4)GlcNAc(b1-4)GlcNAc
# Outline: as §1
# [8] = target: Man(a1-2)Man(a1-6)[Man(a1-3)]Man(a1-6)[Man(a1-2)Man(a1-2)Man(a1-3)]Man
# Outline: as §1
# [9] = target: Man(a1-2)Man(a1-6)[Man(a1-3)]Man(a1-6)[Man(a1-2)Man(a1-2)Man(a1-3)]Man(b1-4)GlcNAc(b1-4)GlcNAc
# Outline: as §1
# Man(a1-3)[Man(a1-6)]Man = target: Man(a1-3)[Man(a1-6)]Man
# Outline: as §1
# [10] = target: Man(a1-3)[Man(a1-6)]Man(a1-6)[Man(a1-2)Man(a1-3)]Man(b1-4)GlcNAc(b1-4)GlcNAc
# Outline: as §1
# [11] = target: Man(a1-3)[Man(a1-6)]Man(a1-6)[Man(a1-3)]Man
# Outline: as §1
# [12] = target: Man(a1-3)[Man(a1-6)]Man(a1-6)[Man(a1-3)]Man(b1-4)GlcNAc(b1-4)GlcNAc
# Outline: as §1
# [13] = target: Man(a1-3)[Man(a1-6)]Man(b1-4)GlcNAc(b1-4)GlcNAc
# Outline: as §1
# [14] = target: Man(a1-3)[Man(a1-6)]Man(b1-4)GlcNAc(b1-4)[Fuc(a1-6)]GlcNAc
# Outline: as §1
# Man(a1-6)Man = target: Man(a1-6)Man
# Outline: as §1
# Man(b1-4)GlcNAc = target: Man(b1-4)GlcNAc
# Outline: as §1
# MurNAc(b1-4)GlcNAc = target: MurNAc(b1-4)GlcNAc
# Outline: as §1
binder,measurement,setting,value
B1,glycan array binding signal (z-score),Kdn(a2-3)Gal(b1-3)GlcNAc,-0.066
same,glycan array binding signal (z-score),Kdn(a2-3)Gal(b1-4)Glc,0.283
same,glycan array binding signal (z-score),Kdn(a2-3)Gal(b1-4)GlcNAc,-0.48
same,glycan array binding signal (z-score),[1],-0.199
same,glycan array binding signal (z-score),Kdn(a2-6)Gal(b1-4)GlcNAc,-0.128
same,glycan array binding signal (z-score),[2],-0.069
same,glycan array binding signal (z-score),[3],-0.576
same,glycan array binding signal (z-score),Man(a1-2)Man(a1-3)Man,-0.172
same,glycan array binding signal (z-score),[4],0.372
same,glycan array binding signal (z-score),[5],-0.139
same,glycan array binding signal (z-score),[6],-0.48
same,glycan array binding signal (z-score),[7],-0.46
same,glycan array binding signal (z-score),[8],-0.364
same,glycan array binding signal (z-score),[9],-0.33
same,glycan array binding signal (z-score),Man(a1-3)[Man(a1-6)]Man,-0.444
same,glycan array binding signal (z-score),[10],-0.064
same,glycan array binding signal (z-score),[11],0.109
same,glycan array binding signal (z-score),[12],-0.179
same,glycan array binding signal (z-score),[13],-0.368
same,glycan array binding signal (z-score),[14],0.77
same,glycan array binding signal (z-score),Man(a1-6)Man,0.34
same,glycan array binding signal (z-score),Man(b1-4)GlcNAc,-0.379
same,glycan array binding signal (z-score),MurNAc(b1-4)GlcNAc,0.118

# Source: the supplement of paper PMC8728848
